Laboratory results published in PubChem BioAssay AID1768 (National Center for Advancing Translational Sciences (NCATS), 2009).
Hit rate of the full screen: of about 270,000 compounds, about 620 (0.23%) were called active. Inconclusive results, whose numbers are uncertain, are shown with a selection of clear calls. Calls follow the shape of the dose curve; as a rule, active = well fitted inhibition curve with a large enough effect in the polarisation, with a control signal flat (not every such curve was filed as active); inconclusive = small, poorly fitted or top-dose-only effect, or effect the other way, or a change in a side signal; inactive = no such curve, though single readings can be large or run the other way; the % refers to the polarisation. Potencies of inconclusive entries are doubtful fits and often do not repeat. A note “side channel” means that the fit belongs to a control or component signal, not to the main read-out.

Each compound was assayed against Menin (Homo sapiens) (UniProt O00255) (assay: qHTS Assay for Inhibitors Targeting the Menin-MLL Interaction in MLL Related Leukemias: Competition With Texas Red Labeled MLL-derived Mutant Peptide). Conditions: fluorescence polarization; FP activity change, negative = inhibition: at 61.6 µM (top of the series).
Chain of UniProt O00255 (O00255 whole entry, looked up): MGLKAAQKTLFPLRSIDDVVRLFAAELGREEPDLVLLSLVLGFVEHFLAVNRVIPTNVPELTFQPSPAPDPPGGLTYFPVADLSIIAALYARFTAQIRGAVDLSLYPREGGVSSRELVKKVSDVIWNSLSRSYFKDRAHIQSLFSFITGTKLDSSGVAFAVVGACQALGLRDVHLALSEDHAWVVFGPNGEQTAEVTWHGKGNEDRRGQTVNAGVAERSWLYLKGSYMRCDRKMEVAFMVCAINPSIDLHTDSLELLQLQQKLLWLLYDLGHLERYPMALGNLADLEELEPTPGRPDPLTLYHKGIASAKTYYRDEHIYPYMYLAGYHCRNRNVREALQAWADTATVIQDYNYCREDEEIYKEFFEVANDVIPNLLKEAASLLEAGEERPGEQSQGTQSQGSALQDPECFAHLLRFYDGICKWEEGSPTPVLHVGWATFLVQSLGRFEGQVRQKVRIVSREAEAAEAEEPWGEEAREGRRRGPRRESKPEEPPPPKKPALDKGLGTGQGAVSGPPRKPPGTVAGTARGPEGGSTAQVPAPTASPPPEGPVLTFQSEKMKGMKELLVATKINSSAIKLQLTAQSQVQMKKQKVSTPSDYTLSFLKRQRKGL

For FP activity change, negative = inhibition in this document: % of control where 0% means no effect.
Potency is read from the fitted curve at half-maximal effect; tags tell the direction and shape of the fitted curve or compound fluorescence and quenching.

Potency, inconclusive:
Cc1ccc(C)c(NC(=S)NNC(=S)Nc2ccc(C(C)C)cc2)c1 8.91 µM [quencher, side channel, partial curve], Cc1cc2c3c(c1)C(C)(c1ccccc1)CC(C)(C)N3C(=O)C21C(C#N)=C(N)OC2=C1C(=O)CC(C)(C)C2 (stereo unspecified) 2 µM [fluorescent, side channel, partial curve], Cc1[nH]c2ccccc2c1/C=N\NC(=O)CNc1ccc2c(c1)OCO2 28.2 µM [quencher, side channel, single point], Cc1ccc(CCNCc2c(C(=O)O)c(C)n(-c3ccccc3)c2C)cc1 11.2 µM [fluorescent, side channel, partial curve], O=C1N=C(c2ccccc2)S/C1=C\c1cccs1 35.5 µM [quencher, side channel, single point], Cc1cc(Cl)ccc1OCCCC(=O)N/N=C/c1cccc([N+](=O)[O-])c1 22.4 µM [quencher, side channel, partial curve], CN(C)S(=O)(=O)c1ccc(S(=O)(=O)Nc2ccc3c(c2)oc2ccccc23)cc1 25.1 µM [quencher, side channel, single point], Cc1c(N=Nc2c(-c3ccc([N+](=O)[O-])cc3)[nH]n(C(N)=S)c2=O)cccc1[N+](=O)[O-] 3.55 µM [quencher, side channel, full curve], CNS(=O)(=O)c1cccc(C(=O)OCC(=O)Nc2ccc(-c3nc4ccc(C)cc4s3)cc2)c1 7.94 µM [inhibitor, full curve], Cn1ccnc1SCC(=O)Nc1sccc1C#N 20 µM [quencher, partial curve], COc1ccc(C2=NOC(C(=O)NCc3ccccc3)C2)cc1 (stereo unspecified) 22.4 µM [fluorescent, side channel, single point], Cc1cccn2c(=O)c(/C=C(\C#N)C(N)=O)c(N3CCCCCC3)nc12 1 µM [inhibitor, full curve], CN1CCc2ccccc2C1Cc1ccccc1NC(=O)c1sc2ccccc2c1Cl (stereo unspecified) 7.94 µM [fluorescent, side channel, full curve]

FP activity change, negative = inhibition, inactive:
CC(=O)N/N=C/c1c(C)[nH]n(-c2ccccc2)c1=O 1.18%, Cc1sc2cc3c(c(C(=O)c4ccccc4)[n+]2c1C)-c1cccc2cccc-3c12 -21.2%, O=C(c1cccn(Cc2cccc(Cl)c2)c1=O)N1CCOCC1 0.277%
